Test results taken from the supplement of paper PMC12217912.
The other results are listed elsewhere or left out. The full chains were built here from the parent and the listed change. Inactive controls read about 0.05.

B1: TEV protease; numbered along this chain (parent)
chain: MGESLFKGPRDYNPISSSICHLTNESDGHTTSLYGIGFGPFIITNKHLFRRNNGTLVVQSLHGVFKVKDTTTLQQHLVDGRDMIIIRMPKDFPPFPQKLKFREPQREERICLVTTNFQTKSMSSMVSDTSCTFPSGDGIFWKHWIQTKDGQCGSPLVSTRDGFIVGIHSASNFTNTNNYFTSVPKNFMELLTNQEAQQWVSGWRLNADSVLWGGHKVFMVKPEEPFQPVKEATQL

Variants of: B1
Experiment: raw area under fraction-flipped curve 0-4 h after induction (AUC4h, not background-subtracted), DNA-recorder readout of cleavage of the substrate (dimensionless); higher = more cleavage of the substrate by the protease variant
Conditions: temperature: 34 °C; time window: 0-4 h after rhamnose induction
Description: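 In vivo DNA recorder in E. coli TOP10(DE3) ΔrhaA at 34 °C. Each TEVp single-site mutant (parent TEVp 0) is paired with a single-site variant of the 7-mer TEVs (canonical ENLYFQ|S). The substrate sits between flexible linkers in a Bxb1-sfGFP-TEVs-SsrA fusion, so cleavage stabilises Bxb1 and speeds flipping of a recombination array, read by NGS. The value is the raw area under the fraction-flipped curve over 0-4 h after rhamnose induction (AUC4h), with ≥20 reads per time point. It is not background-subtracted; inactive controls average about 0.047.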
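Note: Bxb1 expression induced with 0.2% (w/v) L-rhamnose at OD600 near 0.5, cultures sampled hourly, flipped fraction per protease–substrate barcode pair counted by paired-end Illumina sequencing.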

Variant | area with substrate ENLYFAS | area with substrate ENLYFCS | area with substrate ENLYFFS | area with substrate ENLYFGS | area with substrate ENLYFHS | area with substrate ENLYFIS | area with substrate ENLYFKS | area with substrate ENLYFMS | area with substrate ENLYFNS | area with substrate ENLYFPS | area with substrate ENLYFRS | area with substrate ENLYFTS | area with substrate ENLYFVS | area with substrate ENLYFWS | area with substrate ENLYFES | area with substrate ENLYFSS | area with substrate ENLYFDS | area with substrate ENLYFYS | area with substrate ENLYFLS
MGESLFKGPRDYNPISSSICHLTNESDGHTTSLYGIGFGPFIITNKHLFRRNNGTLVVQSLHGVFKVKDTTTLQQHMVDGRDMIIIRMPKDFPPFPQKLKFREPQREERICLVTTNFQTKSMSSMVSDTSCTFPSGDGIFWKHWIQTKDGQCGSPLVSTRDGFIVGIHSASNFTNTNNYFTSVPKNFMELLTNQEAQQWVSGWRLNADSVLWGGHKVFMVKPEEPFQPVKEATQL [L77M] | 0.0849 | 0.057 | 0.0631 | 0.0498 | 0.0613 | 0.0417 | 0.0636 | 0.0629 | 0.0472 | 0.0619 | 0.0627 | 0.0672 | 0.0546 | 0.0493 | – | – | – | – | –
MGESLFKGPRDYNPISSSICHLTNESDGHTTSLYGIGFGPFIITNKHLFRRNNGTLVVQSLHGVFKVKDTTTLQQHLKDGRDMIIIRMPKDFPPFPQKLKFREPQREERICLVTTNFQTKSMSSMVSDTSCTFPSGDGIFWKHWIQTKDGQCGSPLVSTRDGFIVGIHSASNFTNTNNYFTSVPKNFMELLTNQEAQQWVSGWRLNADSVLWGGHKVFMVKPEEPFQPVKEATQL [V78K] | 0.0484 | 0.052 | 0.0609 | – | 0.0585 | 0.0525 | 0.0653 | 0.0388 | 0.0487 | 0.0541 | 0.0723 | 0.0579 | 0.0596 | – | 0.0708 | 0.0568 | – | – | –
MGESLFKGPRDYNPISSSICHLTNESDGHTTSLYGIGFGPFIITNKHLFRRNNGTLVVQSLHGVFKVKDTTTLQQHLMDGRDMIIIRMPKDFPPFPQKLKFREPQREERICLVTTNFQTKSMSSMVSDTSCTFPSGDGIFWKHWIQTKDGQCGSPLVSTRDGFIVGIHSASNFTNTNNYFTSVPKNFMELLTNQEAQQWVSGWRLNADSVLWGGHKVFMVKPEEPFQPVKEATQL [V78M] | 0.0492 | 0.066 | 0.0559 | 0.0584 | 0.0572 | 0.0454 | 0.0459 | 0.0378 | 0.0643 | 0.0512 | 0.0541 | – | 0.0533 | 0.0313 | 0.0602 | 0.0584 | 0.0454 | 0.0448 | –
MGESLFKGPRDYNPISSSICHLTNESDGHTTSLYGIGFGPFIITNKHLFRRNNGTLVVQSLHGVFKVKDTTTLQQHLVDYRDMIIIRMPKDFPPFPQKLKFREPQREERICLVTTNFQTKSMSSMVSDTSCTFPSGDGIFWKHWIQTKDGQCGSPLVSTRDGFIVGIHSASNFTNTNNYFTSVPKNFMELLTNQEAQQWVSGWRLNADSVLWGGHKVFMVKPEEPFQPVKEATQL [G80Y] | 0.0659 | 0.0492 | 0.0635 | – | 0.0642 | 0.0497 | – | – | 0.064 | 0.0645 | 0.0594 | 0.0642 | – | – | 0.0703 | 0.0477 | 0.0583 | 0.0336 | 0.0507
MGESLFKGPRDYNPISSSICHLTNESDGHTTSLYGIGFGPFIITNKHLFRRNNGTLVVQSLHGVFKVKDTTTLQQHLVDGREMIIIRMPKDFPPFPQKLKFREPQREERICLVTTNFQTKSMSSMVSDTSCTFPSGDGIFWKHWIQTKDGQCGSPLVSTRDGFIVGIHSASNFTNTNNYFTSVPKNFMELLTNQEAQQWVSGWRLNADSVLWGGHKVFMVKPEEPFQPVKEATQL [D82E] | 0.0378 | 0.076 | 0.0479 | 0.0571 | 0.0676 | 0.0562 | – | 0.0657 | 0.0815 | 0.0534 | – | 0.0561 | – | 0.0391 | 0.0645 | 0.0673 | 0.0658 | – | 0.066
MGESLFKGPRDYNPISSSICHLTNESDGHTTSLYGIGFGPFIITNKHLFRRNNGTLVVQSLHGVFKVKDTTTLQQHLVDGRIMIIIRMPKDFPPFPQKLKFREPQREERICLVTTNFQTKSMSSMVSDTSCTFPSGDGIFWKHWIQTKDGQCGSPLVSTRDGFIVGIHSASNFTNTNNYFTSVPKNFMELLTNQEAQQWVSGWRLNADSVLWGGHKVFMVKPEEPFQPVKEATQL [D82I] | 0.0365 | 0.0614 | 0.0594 | – | 0.0525 | 0.076 | 0.0486 | 0.0479 | – | 0.0265 | – | 0.0495 | 0.0474 | – | 0.0354 | 0.0449 | – | – | 0.0325
MGESLFKGPRDYNPISSSICHLTNESDGHTTSLYGIGFGPFIITNKHLFRRNNGTLVVQSLHGVFKVKDTTTLQQHLVDGRDAIIIRMPKDFPPFPQKLKFREPQREERICLVTTNFQTKSMSSMVSDTSCTFPSGDGIFWKHWIQTKDGQCGSPLVSTRDGFIVGIHSASNFTNTNNYFTSVPKNFMELLTNQEAQQWVSGWRLNADSVLWGGHKVFMVKPEEPFQPVKEATQL [M83A] | 0.0477 | – | 0.0628 | 0.067 | 0.0363 | 0.0615 | 0.0628 | 0.046 | 0.0668 | 0.057 | 0.0661 | 0.0557 | 0.0221 | – | 0.0609 | – | 0.0585 | 0.0543 | 0.0548
MGESLFKGPRDYNPISSSICHLTNESDGHTTSLYGIGFGPFIITNKHLFRRNNGTLVVQSLHGVFKVKDTTTLQQHLVDGRDQIIIRMPKDFPPFPQKLKFREPQREERICLVTTNFQTKSMSSMVSDTSCTFPSGDGIFWKHWIQTKDGQCGSPLVSTRDGFIVGIHSASNFTNTNNYFTSVPKNFMELLTNQEAQQWVSGWRLNADSVLWGGHKVFMVKPEEPFQPVKEATQL [M83Q] | 0.0568 | 0.0658 | – | – | 0.0681 | 0.0653 | 0.0544 | – | 0.0564 | 0.0601 | 0.0658 | 0.0471 | – | 0.0483 | 0.0648 | 0.0163 | – | – | –
MGESLFKGPRDYNPISSSICHLTNESDGHTTSLYGIGFGPFIITNKHLFRRNNGTLVVQSLHGVFKVKDTTTLQQHLVDGRDMQIIRMPKDFPPFPQKLKFREPQREERICLVTTNFQTKSMSSMVSDTSCTFPSGDGIFWKHWIQTKDGQCGSPLVSTRDGFIVGIHSASNFTNTNNYFTSVPKNFMELLTNQEAQQWVSGWRLNADSVLWGGHKVFMVKPEEPFQPVKEATQL [I84Q] | 0.0448 | – | – | 0.0403 | – | – | 0.0569 | – | 0.067 | 0.0682 | – | – | – | – | 0.0563 | – | – | – | 0.0693
